Test results taken from the supplement of paper PMC10126150.
Sequences with one replicate were seen in a single cluster, so their values are uncertain.

System: ATP
Test: switch fluorescence ratio, 500 uM ATP over buffer (Cy3 cluster intensity, sum of 5 cycles each) (fold (ratio)); higher = stronger signal-on switching upon ATP binding; sequences stand for … in TCGTCGGCAGCGTCAGATGTGTATAAGAGACAGTTTTTTTTTTTTTTTTTTTTTTTTT…TC
Details: aptamer strand: ATP DNA aptamer (quencher-CACCTGGGGGAGTATTGCGGAGGAAGG + anchor), 100 nM annealed; ATP concentration: 500 uM; one replicate
In short: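 Switching-strand clusters labelled with Cy3 on a modified Illumina MiSeq flow-cell were annealed to 100 nM quencher-labelled ATP aptamer, imaged in selection buffer, and re-imaged after 15 min with 500 uM ATP at 22 °C. This was done over five cycles with NaOH stripping and re-annealing in between. The fluorescence ratio is summed target-cycle over summed buffer-cycle Cy3 intensity per cluster, averaged per switch-domain sequence, excluding clusters outside 100-1000 RFU.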
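Note: ATP exposure 15 min at 22 °C before imaging.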

Row | Sequence | switch fluorescence ratio
1 | TATACAGGGT | 1
2 | TATAGTGGTG | 0.936
3 | AAGCCTGCAG | 1.02
4 | GATTCGGCTG | 0.987
5 | CGGGTGACTG | 0.943
6 | TTTGTAGTCG | 0.987
7 | TAAGAGACAC | 0.975
8 | CGGGTGTAC | 1.17
9 | GAAGTAAACC | 1.1
10 | CTTATGGTGC | 1.01
11 | ATGATCTCGC | 0.996
12 | GAAGAATTGC | 0.998
13 | CGGCTGAAGC | 1.05
14 | GGGACTAAGG | 1.03
15 | ACAATCTTG | 0.916
16 | TAGCTCACAT | 1.01
17 | CTCGCGAAAT | 1.34
18 | GTTGTTCCCG | 1.04
19 | CCTCGTCGGG | 1.07
20 | CGTAATCAAG | 0.982
21 | ATTTGCTATC | 1.07
22 | CATTTTCCTG | 1.04
23 | TAATACTAAA | 1.01
24 | TTCGCAGCTC | 3.61
25 | TCTTGCGTAG | 1.03

Row | Sequence | switch fluorescence ratio
26 | CTGAGCGGTC | 1.12
27 | CGAGGATGTC | 1.05
28 | ACACAAATG | 1.01
29 | AGGATGCAA | 1.09
30 | CGCTTTGGTG | 1.05
31 | GTTGGCTGAG | 1.05
32 | TGGTGAATGT | 1.11
33 | ATAGAGTTTC | 0.971
34 | ACACTGAAGG | 1.01
35 | CTTAAATGGT | 1.01
36 | GCCTCCATCG | 1.13
37 | GAACGCAAGA | 3.43
38 | TGCAGATGAC | 1.08
39 | GAGGGGGAC | 0.984
40 | GAACCTCGGG | 0.96
41 | ACTCATAGGC | 1.07
42 | TGAACCGCAC | 2.94
43 | AGATCTGTCC | 1.05
44 | ATCGGGCGGA | 1.04
45 | GAGAAGGTGC | 1.19
46 | CGTTTTATAA | 1.05
47 | GTAAAAGAAA | 0.946
48 | GGTATCTGAC | 1.08
49 | AGATCCACGT | 1.05
50 | AAAAGGGAAA | 0.993

Row | Sequence | switch fluorescence ratio
51 | CATCAGGTAA | 1.07
52 | CAGTTACAGT | 1.02
53 | AGCGGACCTT | 1.26
54 | CTGACTAGGA | 0.985
55 | CGATGGCGCG | 0.97
56 | TTGGAGGTA | 0.934
57 | TAGCGGTA | 1.09
58 | CGGAGAGCAG | 0.995
59 | ATGGAAAAAT | 1.06
60 | TTCGCGGGAC | 1.49
61 | TTAATGCGCC | 1.03
62 | AAGAGCTTTA | 0.976
63 | TTGAACTTCA | 1.06
64 | ACGTAATCTA | 1.22
65 | ACAATACGGC | 1.48
66 | CACTAGTTGT | 1.03
67 | ATCGTTCGAG | 0.982
68 | GGCGAGTTGC | 0.99
69 | TGCTCTTCGG | 0.972
70 | GGGCCCAGGG | 1.13
71 | CACGAAAGCT | 1.22
72 | AGCGAGAGCC | 0.999
73 | CACACACTCC | 1.5
74 | TAATAATAAG | 0.983
75 | ATGAACAACA | 1.06

Row | Sequence | switch fluorescence ratio
76 | CGAAGGGCTT | 0.989
77 | CTCAAAAAAT | 0.839
78 | ATTTGACCCC | 1.04
79 | TGAACGCCCG | 1.04
80 | GTATAATGA | 1
81 | TCCGTGTGCC | 1.3
82 | GGGGCGAGAA | 1.02
83 | AACTGACCAG | 1.02
84 | CTCTTGTACA | 1.06
85 | TACGTTAGCA | 1.06
86 | TGTCCCGGCA | 1.05
87 | ATCAAAGTGC | 1.05
88 | CTAACTATGC | 1.08
89 | GCGTGGATGC | 1.02
90 | GTGGCATTAC | 3.34
91 | ACGGATATGC | 1.35
92 | GGATCTGCAT | 1.41
93 | CTCGGCGGAC | 3.86
94 | ACCTCATGGT | 1
95 | TGAAGCGTCA | 1.03
96 | TGACAACTGA | 0.976
97 | ATGCGCTTGA | 1.07
98 | GGGAAGAGCC | 1.31
99 | TCTGATGGGC | 1.09
100 | TTGTGTGAGG | 0.946

Row | Sequence | switch fluorescence ratio
101 | TAGTCCGTCG | 1.12
102 | GAACTTAATT | 1.02
103 | CCGTCCTGCG | 1.04
104 | CAGTTCGCTG | 0.99
105 | GGTTCTGTTG | 0.994
106 | AGCGATACCT | 1.37
107 | GAGTGATGCT | 1.05
108 | GAGGCATAGT | 1.18
109 | ATTAGCTCTG | 0.989
110 | CTTTGTATAG | 1.17
111 | AGTCGTGCAT | 1.05
112 | ACCGAATACG | 1.53
113 | CCTGGAGTT | 1.04
114 | GATTATTGAC | 1.07
115 | AACGTACCTT | 1.57
116 | ATTTGCACTG | 1.03
117 | CACTCCTGAA | 1.03
118 | GGTGCATTTT | 1.04
119 | AGTCGTACAG | 0.968
120 | TTAGTATAAT | 1.02
121 | GAGGTGATTC | 0.997
122 | TAAGGGCTTT | 0.998
123 | ATGGATGAGG | 1.02
124 | CCCCGGCGTG | 2.61
125 | GGCTCTAGGC | 1.03

Row | Sequence | switch fluorescence ratio
126 | CCGGCTAATT | 1.17
127 | GCAGCGAACG | 1.19
128 | TTCTTTCGAT | 1.03
129 | TTTTTTGAG | 1
130 | GGAGTAATGA | 2.04
131 | CCCAGGTTCA | 1.28
132 | AGGCAACTCA | 1.04
133 | TCTGAACTAT | 1.03
134 | GCCATGAGTG | 1.01
135 | CCATTGCAGA | 1.15
136 | CTGTGCGAGC | 1.03
137 | ATAATCAGTC | 1.1
138 | CTGTCCTGT | 1.02
139 | GGGTTCAAAA | 1.01
140 | ACTGGGTGCA | 1.04
141 | TATTAGACCG | 0.996
142 | GCCTGACTGT | 1.06
143 | TCTAGGCAAA | 1.21
144 | AACCCCGTGT | 1.03
145 | CTCTTGTTGG | 0.997
146 | CTAGAGAGT | 1
147 | ACGGACTAGC | 1.22
148 | CCGATCGTTT | 1.82
149 | TGGGTTGAAA | 0.99
150 | AGGGGCAATC | 3.02

Row | Sequence | switch fluorescence ratio
151 | ATTATACTCG | 1.04
152 | ATGATTTTAC | 1.05
153 | CTCTAAAGGG | 1.07
154 | TTGTTCGTGG | 0.95
155 | TCTTCTCTTT | 0.974
156 | GCAGGGAGT | 1
157 | CCATGAGTTG | 0.996
158 | ATTCTCGTTG | 0.994
159 | ACATTCGGG | 0.982
160 | AAGTGCATGT | 1.06
161 | CAAAAGGTCC | 1.05
162 | ATGTCGGGAT | 1
163 | GATGATCTGT | 0.987
164 | TCTAAGAGCT | 0.937
165 | CCCATGTGTC | 1.48
166 | GGAGCATGAT | 1.32
167 | GCACGGCGTC | 1.06
168 | GCGACCGTCA | 1.03
169 | ATCACCGAGT | 1.02
170 | GGACAAGAGG | 0.971
171 | AATAGCGTAT | 0.997
172 | TTACATTACG | 0.984
173 | GCGATTGGCG | 0.982
174 | CATATCCCAA | 1.05
175 | TACTCTCTG | 1.07

Row | Sequence | switch fluorescence ratio
176 | TATAGACAGA | 0.994
177 | ACGGTCAAGG | 1.03
178 | TAGCTAATTG | 0.969
179 | ACCAATGGG | 0.977
180 | GGTCCCTAGG | 1.21
181 | TCGGACACGG | 1.04
182 | CACTCGGGCC | 0.981
183 | CCTCCAGTCG | 1.72
184 | TGAACGAACG | 1.08
185 | GAGATAAATC | 1.03
186 | TCCTTTTACA | 1.04
187 | CGAGAATGT | 0.963
188 | GTTATGATTA | 1
189 | GGACGCGGGA | 1.08
190 | GGGAAGAATT | 0.958
191 | TTCAACCTG | 1.04
192 | TTTGTACTCT | 0.947
193 | ATACGACGGA | 1.01
194 | GGGCAAAAGA | 1.12
195 | GCCATATCGT | 0.993
196 | ATTCATGTGC | 1.07
197 | AGCTGTCCGT | 0.991
198 | TTATTCCAGC | 1.02
199 | TTTTCGTCAT | 0.928
200 | TTAGCGGAGC | 0.989
